Results as given in PubChem BioAssay AID540267 (National Center for Advancing Translational Sciences (NCATS), 2011).
Where “and” joins values, the source holds several entries; their conditions need not be identical. Equal entries are not always repeated. The campaign covered roughly 340,000 compounds. About 530 (0.16%) were called active. Inconclusive means that the source gave no clear call. Such entries were picked first, then a sample of the others. No stated cut-off is given here; in the data, active means activity change below about -80%; inconclusive means between about -30% and that limit; inactive means weaker than that.
On the % scale 0 is the no-effect control and ±100 the full control effect.

Test: Small Molecules that selectively kill Giardia lamblia: qHTS;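 further: parasites exposed to compound for two days anaerobically before the ATP read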
Conditions: Giardia lamblia trophozoite viability; at 7.66 µM; active compounds read low
Procedure, shortened: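 Killing of trophozoites was scored by loss of ATP luminescence after a 48 hrs anaerobic exposure to compounds at 37 deg C, using 100 cells per well.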
For CN(C(=O)CSc1nc2ccc([N+](=O)[O-])cc2s1)C1CCS(=O)(=O)C1 (configuration not stated), the activity change was inconclusive: -56.9% [inhibitor]. With COc1ccc(Nc2nnc(SCC(=O)Nc3cc(C)on3)s2)cc1 the activity change was inactive: -6.49%. With Cc1cccc(NC(=O)c2cccc([N+](=O)[O-])c2O)c1C the activity change was inconclusive: -41.6% [inhibitor]. With Cc1ccc(NC(=O)c2ncn(CC(=O)N[C@H](C)c3cccc4ccccc34)n2)cc1C the activity change was inconclusive: -34.3% [inhibitor]. In the case of CN(C)c1ccc(/C=N\NC(=O)c2cccc3cc[nH]c23)cc1, the activity change is reported as inactive: -1.45%. With Cc1noc(C)c1C(=O)NCCC1=CCCCC1 the activity change was inconclusive: -33.4% [inhibitor]. With CC(=O)c1cccc(NC(=O)NNC(=O)c2ccc(Cl)cc2Cl)c1 the activity change was inactive: -2.37%. With CCN(CC)C(=O)Oc1cc2c(-c3cc4cccc(OC)c4o3)cc(=O)oc2cc1C the activity change was inconclusive: -40.7% [inhibitor]. For CCCNC(=O)Cn1c(=O)n(C)c2ccccc21, the activity change was inconclusive: -46% [inhibitor]. In the case of COc1ccc(OC)c(/C=N/NC(=O)c2csc3ccccc23)c1, the activity change is reported as inconclusive: -32.3% [inhibitor]. In the case of Cc1ccc(/C(O)=C2\C(=O)C(=O)N(CCc3c[nH]c4ccccc34)C2c2cccnc2)cc1 (configuration not stated), the activity change is reported as inconclusive: -31.2% [inhibitor]. With O=C(/C=C/c1ccc(Cl)cc1Cl)Nc1cccc(S(=O)(=O)NC2=NCCC2)c1 the activity change was inconclusive: -61.3% [inhibitor]. For O=C(COC(=O)c1ccccc1C(=O)c1ccccc1)Nc1ccc(SC(F)F)cc1, the activity change was inactive: -16.8%. For O=C(Nc1nc(-c2cccs2)cs1)c1ccc([N+](=O)[O-])o1, the activity change was active: -81.9%. In the case of Cc1cc2nc(-c3ccc(SCC(=O)N4CCOCC4)nc3)[nH]c2cc1C, the activity change is reported as inconclusive: -39.2% [inhibitor]. For O=C(Cc1ccccc1)Nc1ccc(N2CCCC2)cc1, the activity change was inconclusive: -34.8% [inhibitor]. In the case of Cc1ccc(S(=O)(=O)N2CCN(C(=O)COc3ccc(C)nc3[N+](=O)[O-])CC2)c(C)c1, the activity change is reported as inconclusive: -45.1% [inhibitor]. In the case of COc1ccccc1CN=c1c([N+](=O)[O-])nn(-c2ccc3c(c2)OCCO3)n1O, the activity change is reported as active: -89.7%. In the case of Cc1ccc(-c2nnn(CC(=O)NCCc3ccc4c(c3)OCO4)n2)cc1, the activity change is reported as inconclusive: -44.1% [inhibitor]. For O=C(CSc1nnc(-c2ccncc2)n1-c1ccccc1)N1CCN(c2ccc(Cl)cc2)CC1, the activity change was inactive: -20.2%. For C/C(CCC(C)C)=N\NC(=S)NCc1ccccc1, the activity change was inconclusive: -31.3% [inhibitor]. For NC(=O)C1CCN(c2ncnc3c2c(-c2ccccc2)cn3-c2ccccc2)CC1, the activity change was inconclusive: -42.7% [inhibitor]. In the case of O=C(Nc1ccc(S(=O)(=O)N2CCCCC2c2cccnc2)cc1)c1ccccc1F (configuration not stated), the activity change is reported as inconclusive: -34.7% [inhibitor]. For Cn1nccc1C(=O)NC(=S)Nc1cc(Cl)cc(Cl)c1, the activity change was inactive: 14.2%. For O=C(O)c1cccc(NC2=Nc3cccc4cccc2c34)c1, the activity change was inactive: 0.427%. In the case of O=C(N/N=C/c1ccc([N+](=O)[O-])o1)c1ccccc1NS(=O)(=O)c1cccs1, the activity change is reported as inconclusive: -33.6% [inhibitor]. For COc1cc(NC(=O)NNC(=O)c2cc3occc3n2C)cc(OC)c1OC, the activity change was inconclusive: -44.8% [inhibitor]. With Cc1cccc(NC(=S)NNc2ncc(C(F)(F)F)cc2Cl)c1 the activity change was inconclusive: -31.6% [inhibitor]. For COc1cc(CC(=O)N(c2ccccc2)c2nc(C)cs2)cc(OC)c1OC, the activity change was inconclusive: -31% [inhibitor]. In the case of NS(=O)(=O)Nc1cccc2cccnc12, the activity change is reported as inconclusive: -30.6% [inhibitor]. For COc1ccc(NC(=O)Cn2c(C(C)C)nc(C)cc2=O)cc1Cl, the activity change was inconclusive: -34.4% [inhibitor]. For COc1ccccc1C(=O)NCC(=O)OCC(=O)N(CC(C)C)c1c(N)n(Cc2ccccc2)c(=O)[nH]c1=O, the activity change was inactive: 11%. For CCOc1ccc(/C=C2\SC(=S)N(NC(=O)c3ccncc3)C2=O)cc1OC, the activity change was inconclusive: -32.6% [inhibitor]. In the case of COc1ccccc1-c1cccc([C@@H]2C[C@H]3[C@@H](CN2)CON3C)c1, the activity change is reported as inconclusive: -42% [inhibitor]. With Cc1cc(C(F)(F)F)n2[nH]c(=O)c(N=Nc3ccccc3)c2n1 the activity change was inactive: -2.3%. With CC[N+]1(C)CCC(O)(c2ccc(OC)cc2)C(C(=O)c2ccc(OC)cc2)C1 (configuration not stated) the activity change was inactive: 8.22%. For CN(C)C(=O)c1cc([N+](=O)[O-])cc([N+](=O)[O-])c1N(C)C, the activity change was inconclusive: -47% [inhibitor]. For Cc1ncc(CC(=O)n2cc(C(=O)c3cc(Cl)ccc3O)cn2)s1, the activity change was inconclusive: -37.1% [inhibitor]. With CCOC(=O)CSc1ncnc2c1cnn2-c1ccccc1 the activity change was inactive: -5.9%. With Cc1oc2cc(O)ccc2c(=O)c1-c1ccccc1 the activity change was inconclusive: -38.2% [inhibitor]. For Cc1cc(N)ccc1-n1c(C)ccc1C, the activity change was inconclusive: -43.4% [inhibitor]. With Cc1cc(C(=O)COC(=O)c2cccc(NS(C)(=O)=O)c2)c(C)n1CC1CCCO1 (configuration not stated) the activity change was inconclusive: -58.2% [inhibitor]. With COc1ccc(C2CC(c3ccccc3)Oc3cc4c(cc32)OCO4)cc1 (configuration not stated) the activity change was inactive: -20% and inactive: -7.54%. In the case of CC(=O)c1ccc(S(=O)(=O)N2CCN(C(=O)c3ccc(-n4cncn4)c([N+](=O)[O-])c3)CC2)cc1, the activity change is reported as inconclusive: -30.6% [inhibitor]. For Fc1ccc(-c2nc3ccccc3c3nc4ccccc4n23)cc1, the activity change was inconclusive: -32.7% [inhibitor]. In the case of Cc1cc(=O)oc2cc(Oc3ccc([N+](=O)[O-])cc3[N+](=O)[O-])ccc12, the activity change is reported as inconclusive: -32.6% [inhibitor]. In the case of Cn1cccc1/C=C1\CCc2ccccc2C1=O, the activity change is reported as inconclusive: -38.7% [inhibitor]. With Cc1cc(Br)ccc1NC(=O)CN1C(=O)C2CC=CCC2C1=O (configuration not stated) the activity change was inconclusive: -30.4% [inhibitor]. For CN1CCN(c2ccc(NC(=O)COc3cccc4ccccc34)cc2)CC1, the activity change was inactive: -19.4%. With CC(C)(C)c1csc(NC2=NS(=O)(=O)c3ccccc32)n1 the activity change was inconclusive: -46.3% [inhibitor]. For O=C(N/N=C/c1ccc(-c2ccccc2C(=O)O)o1)c1cccs1, the activity change was inconclusive: -30.3% [inhibitor]. With CCc1ccc(/C=C2\Oc3cc(OC(=O)N4CCOCC4)ccc3C2=O)cc1 the activity change was inconclusive: -32.9% [inhibitor]. In the case of Cc1ccc(/C=N/Nc2nc3ccccc3[nH]2)s1, the activity change is reported as inactive: 25.6%. In the case of CCOc1ccc(NC(=O)NN2C(C)CCCC2C)cc1 (configuration not stated), the activity change is reported as inconclusive: -32.5% [inhibitor]. With CCOc1ccc(CC(=O)N2N=C(C)CC2(O)C(F)(F)F)cc1 (configuration not stated) the activity change was inactive: -23.9%. In the case of COc1ccc(C2=NS(=O)(=O)N(C)C(C(=O)NC3CCCCC3)=C2)cc1, the activity change is reported as inactive: -21.6%. In the case of COc1ccc(/C=N/NC(=O)C2C(=O)NCC2c2ccccc2)c(OC)c1 (configuration not stated), the activity change is reported as inactive: -5.46%. For O=C(Nc1ccccc1)C12CC3CC(C1)CC(n1cnc([N+](=O)[O-])n1)(C3)C2, the activity change was inconclusive: -39.8% [inhibitor]. In the case of Cc1ccc(C(=O)Nc2nc3ccccc3[nH]2)cc1, the activity change is reported as active: -92.5%. For O=C(NCc1cccnc1)Nc1cc(Cl)cc(Cl)c1, the activity change was inconclusive: -33.4% [inhibitor]. With CCOC(=O)N1CCN([N+]([O-])=NOc2cc(O/N=[N+](\[O-])N(C)C)c([N+](=O)[O-])cc2[N+](=O)[O-])CC1 the activity change was inconclusive: -40.2% [inhibitor]. With COc1ccc(/C=N/NC(=O)c2ccoc2C)cc1OC the activity change was inconclusive: -42.1% [inhibitor]. For COc1ccc2sc(NC(=O)c3ccco3)nc2c1, the activity change was inconclusive: -34.9% [inhibitor]. In the case of CC(C)c1ccc(C2(C)NC(=O)N(CC(=O)NCC3COc4ccccc4O3)C2=O)cc1 (configuration not stated), the activity change is reported as inconclusive: -31.5% [inhibitor]. In the case of O=C(NC1CCCCC1)c1cc(-c2cccs2)on1, the activity change is reported as inactive: -3.26%. For C[n+]1c2cc(N)ccc2cc2ccc(N)cc21, the activity change was inconclusive: -43.1% [inhibitor]. With CCCCOC(=O)Nc1nnc(Cc2ccc(Cl)cc2)s1 the activity change was inconclusive: -30.2% [inhibitor]. For CC(C)CCC1(C)NC(=O)N(CC(=O)c2ccc[nH]2)C1=O (configuration not stated), the activity change was inconclusive: -38.3% [inhibitor]. For C=C(C)C1(O)OC(=O)C=C1OC (configuration not stated), the activity change was inactive: 5.12%. For CSC1=C(C#N)C(c2ccccc2Cl)C(C(=O)c2cccs2)C(O)(C(F)(F)F)N1 (configuration not stated), the activity change was inconclusive: -33.9% [inhibitor]. With CCN(CC)c1ccc(C(=O)NNC(=O)c2cccn2C)cc1 the activity change was inconclusive: -37% [inhibitor]. With CCOc1ccc(NC(=O)CN(C)C(=O)C2CC(=O)N(CCc3ccc(OC)c(OC)c3)C2)cc1OCC (configuration not stated) the activity change was inconclusive: -37.4% [inhibitor]. In the case of Cc1ccnc(NC(=O)c2cccs2)c1, the activity change is reported as inconclusive: -30.9% [inhibitor]. In the case of CCCCOc1ccc(-c2cc(C(=O)NNC(=S)NCC)c3ccccc3n2)cc1, the activity change is reported as inconclusive: -76.9% [inhibitor]. In the case of Cc1ccc(S(=O)(=O)N2CCN(c3ccccc3)CC2)cc1C(N)=O, the activity change is reported as inactive: 3.88%. In the case of COc1ccc(S(=O)(=O)N2CCOCC2)cc1C(=O)N(C)Cc1ccco1, the activity change is reported as inconclusive: -31.4% [inhibitor]. For O=C(NCC1CC1)c1ccc2c3n(nc2c1)-c1ccccc1CO3, the activity change was inconclusive: -69.7% [inhibitor].
